# Experimental data taken from the supplement of paper PMC12645437, “Orthogonal IMiD-Degron Pairs Induce Selective Protein Degradation in Cells” (ACS Chemical Biology, 2025).
# This is one part of the list.
# B1: Q9UKT9 (peptide)
# chain: FKCNICGAAFTQKGNLLRHIKL
# B2: Q9UKT9 (peptide)
# chain: FTCDICGATFTQKGNLLRHIKL
# B3: Q9UKT9 (peptide)
# chain: LSCPICGFWCTQKGNLLRHIKL
# B4: Q9UKT9 (peptide)
# chain: FWCNQCGRGFTQKGNLLRHIKL
# B5: Q9UKT9 (peptide)
# chain: LSCEICGFYCTQKGNLLRHIKL
# B6: Q9UKT9 (peptide)
# chain: FRCPQCGAKFTQKGNLLRHIKL
# B7: Q9UKT9 (peptide)
# chain: FCCPICGHFFTQKGNLLRHIKL
# B8: Q9UKT9 (peptide)
# chain: FTCNICGAFFTQKGNLLRHIKL
# B9: Q9UKT9 (peptide)
# chain: FECNQCGRQFTQKGNLLRHIKL
# B10: Q9UKT9 (peptide)
# chain: LKCNQCGFMCTQKGNLLRHIKL
# B11: Q9UKT9 (peptide)
# chain: FLCEICGHVFTQKGNLLRHIKL
# B12: Q9UKT9 (peptide)
# chain: FGCPICGHMFTQKGNLLRHIKL
# B13: Q9UKT9 (peptide)
# chain: FMCNQCGAYFTQKGNLLRHIKL
# B14: Q9UKT9 (peptide)
# chain: FGCEICGASFTQKGNLLRHIKL
# Molecular target: no compound (DMSO)
# Test: log2 fold change of degron read counts, EGFP-low vs EGFP+ sorted cells; higher = lower degron-EGFP level without compound (poor expression or instability)
# Details: compound: DMSO control; 18 h
# 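Further: jurkat cells carrying a lentiviral library of mutant zinc finger degrons fused to EGFP plus mCherry, mCherry+ cells FACS sorted, degron abundance counted by next-generation sequencing.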
row,Sequence,log2 fold change of degron read counts
1,B1,-1.11
2,B2,-1.45
3,B3,1.35
4,B4,0.446
5,B5,1.06
6,B6,-0.483
7,B7,0.838
8,B8,0.273
9,B9,-0.684
10,B10,0.468
11,B11,-0.0869
12,B12,-0.384
13,B13,0.503
14,B14,-0.963
